Data reported in PubChem BioAssay AID1645887 (National Center for Advancing Translational Sciences (NCATS), 2021).
Where “and” joins values, the source holds several entries; their conditions need not be identical. Identical values can stand only once. Among all 16,000 compounds or so, about 40 (0.2%) were called active. Inconclusive results (about 1%) are left out. The call rests on the fitted dose curve; in most records, active means well fitted activation curve with a large enough effect; inconclusive means small, poorly fitted or top-dose-only effect, or another doubt; inactive means no such curve, though single readings can be large or run the other way. The list shows a part of the results.

Molecular target: Rap guanine nucleotide exchange factor 4 (Homo sapiens) (UniProt Q8WZA2)
Test: Validation qHTS for agonist of cAMP-regulated guanine nucleotide exchange factor 4 (EPAC2);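 further: exchange makes BODIPY-GDP fluorescence drop when released from Rap1B; series mostly up to about 150 µM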
Conditions: EPAC2 Rap1B BODIPY-GDP exchange, fluorescence; activation: active compounds read high
In short: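 Signal normalized against 6.5 mM cAMP as agonist control. Mix of EPAC2 (100 nM), RAP1B-BODIPY-GDP (250 nM) and GDP (50 uM) was read kinetically at 480/540 nm, every 5 min over 30 min, after 5 min room-temperature incubation with compound.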
On the % scale 0 is the no-effect control and ±100 the full control effect.

Chain of UniProt Q8WZA2 (Q8WZA2 whole entry, looked up): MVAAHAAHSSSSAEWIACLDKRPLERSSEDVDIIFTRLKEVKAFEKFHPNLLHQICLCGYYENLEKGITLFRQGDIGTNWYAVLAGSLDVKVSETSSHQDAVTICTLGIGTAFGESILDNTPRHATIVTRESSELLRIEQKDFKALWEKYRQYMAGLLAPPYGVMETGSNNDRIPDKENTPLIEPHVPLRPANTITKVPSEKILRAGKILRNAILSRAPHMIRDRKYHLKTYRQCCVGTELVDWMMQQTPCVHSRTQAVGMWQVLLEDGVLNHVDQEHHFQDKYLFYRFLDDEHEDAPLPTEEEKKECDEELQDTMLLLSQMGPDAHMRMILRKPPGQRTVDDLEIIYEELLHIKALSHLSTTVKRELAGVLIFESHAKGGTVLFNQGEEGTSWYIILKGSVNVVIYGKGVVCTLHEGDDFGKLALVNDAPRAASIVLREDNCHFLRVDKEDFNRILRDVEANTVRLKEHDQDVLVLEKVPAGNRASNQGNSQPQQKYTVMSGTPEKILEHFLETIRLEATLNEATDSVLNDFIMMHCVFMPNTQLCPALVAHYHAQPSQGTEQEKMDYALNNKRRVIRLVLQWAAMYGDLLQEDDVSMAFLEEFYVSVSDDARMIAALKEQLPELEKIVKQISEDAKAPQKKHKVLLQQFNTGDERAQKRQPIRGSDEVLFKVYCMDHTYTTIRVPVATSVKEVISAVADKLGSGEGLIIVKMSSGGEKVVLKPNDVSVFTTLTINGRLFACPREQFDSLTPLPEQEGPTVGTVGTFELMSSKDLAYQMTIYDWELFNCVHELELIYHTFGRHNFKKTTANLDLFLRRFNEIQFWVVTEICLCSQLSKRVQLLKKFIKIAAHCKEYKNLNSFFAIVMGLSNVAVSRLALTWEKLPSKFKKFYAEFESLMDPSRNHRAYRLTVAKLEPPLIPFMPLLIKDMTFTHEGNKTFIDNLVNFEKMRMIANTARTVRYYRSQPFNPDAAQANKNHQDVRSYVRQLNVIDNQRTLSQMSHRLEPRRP

SMILES | activation
C[N+](C)(C)CCOC(=O)CBr | inactive: 9.33% and inactive: -22%
Cc1sc2ccccc2c1CC1=NCCN1 | inactive: -3.15%
CC(=O)[C@H]1CC[C@H]2[C@@H]3CC[C@H]4C[C@](C)(O)CC[C@]4(C)[C@H]3CC[C@]12C | inactive: -9.07% and inactive: -63.8%
NC1=NC(=O)C(c2ccccc2)O1 (stereo unspecified) | inactive: -15.7%
CCOC(=O)C1(c2ccccc2)CCN(CCC(C#N)(c2ccccc2)c2ccccc2)CC1 | inactive: 12.9% and inactive: 9.47%
CN(C)CCc1ccc(O)cc1 | inactive: 1.09% and inactive: -14.3%
C=CC(=O)NCNC(=O)C=C | inactive: -12.5%
O=C(Oc1ccccc1)N1CCC2(CCCN(Cc3nccs3)C2)CC1 | inactive: -14.3%
Cn1cccc1-c1cccnc1 | inactive: -4.26%
CCCCCCC(C)(C)c1ccc([C@@H]2C[C@H](O)CC[C@@H]2CCCO)c(O)c1 | inactive: -42.2%
CC(=O)OC1CC2C(C)(C)C(O)C=C[C@@]2(C)C2CC[C@]3(C)C(=CC(=O)OC3c3ccoc3)[C@]12C (stereo partly specified) | inactive: -3.95%
CCOP(=S)(OCC)O/N=C(\C#N)c1ccccc1 | inactive: -7.89%
C=CCN1CC[C@]23c4c5ccc(O)c4O[C@@H]2C(=O)CC[C@]3(O)[C@H]1C5 | inactive: 1.95%
N[C@@H]1C[C@H]1c1ccccc1 | inactive: -3.18%
CC(C)NCC(O)c1ccc([N+](=O)[O-])cc1 (stereo unspecified) | inactive: -8.47%
CCC(Sc1ccccc1)C(=O)OC1CC2CCC(C1)N2C (stereo unspecified) | inactive: 11.1%
COC(=O)[C@]1(C)CC[C@@]2(C)CC[C@@]3(C)C4=CC=C5C(=CC(=O)C(O)=C5C)[C@@]4(C)CC[C@@]3(C)C2C1 (stereo partly specified) | inactive: -27.3%
C[C@H](N)Cc1c[nH]c2ccc(O)cc12 | inactive: -5.24%
CNc1ccccc1C(=O)O | inactive: -22.8%
CN(C(=O)Cc1ccc(Cl)c(Cl)c1)[C@@H](CN1CCCC1)c1cccc(OCC(=O)O)c1 | inactive: 3.86%
COc1nn(CSP(=S)(OC)OC)c(=O)s1 | inactive: 11.8%

SMILES | activation
NC(N)=Nc1ccc2[nH]c3c(c2c1)C[C@]1(O)[C@@H]2Cc4ccc(O)c5c4[C@]1(CCN2CC1CC1)[C@@H]3O5 | inactive: -21.3%
CC(Cc1ccccc1)NCCn1cnc2c1c(=O)n(C)c(=O)n2C (stereo unspecified) | inactive: 0.147%
O[C@H]1[C@H](O)[C@@H](O)CN2CC[C@H](O)[C@H]12 | inactive: -1.3%
CC1(C)C2C[C@@H](O)[C@]3(C)C(CC[C@@]4(C)[C@H](c5ccoc5)C[C@H]5O[C@]543)[C@@]2(C)[C@@H](O)C[C@H]1O (stereo partly specified) | inactive: -15.9%
CC(C)NC(=O)N1CC[C@@]2(CCCNC2)C1 | inactive: -10.2%
CN1C[C@@H](CO)C=C2c3cccc4[nH]cc(c34)CC21 (stereo partly specified) | inactive: 6.12%
C[C@]12CCC3C(CC[C@]4(O)C[C@@H](O)CC[C@]34C=O)[C@@]1(O)CC[C@@H]2C1=CC(=O)OC1 (stereo partly specified) | inactive: -19.3%
O=C(CC[N+](=O)[O-])OCC1OC(O)C(OC(=O)CC[N+](=O)[O-])[C@@H](OC(=O)CC[N+](=O)[O-])C1OC(=O)CC[N+](=O)[O-] (stereo partly specified) | inactive: -12.9%
CC1(C)C(O)CC(O)[C@]2(C)C1CC(O)[C@]1(C)C2CC[C@@]2(C)C(c3ccoc3)CC3OC312 (stereo partly specified) | inactive: -30.4%
Cn1c(CCCC(=O)O)nc2cc(N(CCCl)CCCl)ccc21 | inactive: -8.42%
COC1=CC=C2[C@H]3Cc4ccc(OC)c5c4[C@@]2(CCN3C)[C@H]1O5 | inactive: -19.8% and inactive: -6.03%
CN1CCc2cc(O)cc3c2C1Cc1ccc(O)c(O)c1-3 (stereo unspecified) | inactive: -14.6%
NC(CP(=O)(O)O)C(=O)O (stereo unspecified) | inactive: 3.11% and inactive: -16.1%
C=CCN1CC[C@]23c4c5ccc(O)c4O[C@H]2[C@@H](O)C=C[C@H]3[C@H]1C5 | inactive: -13.6%
CN1CCc2cc(O)cc3c2[C@H]1Cc1ccc(O)c(O)c1-3 | inactive: -24.9%
CN[C@@H](C)Cc1ccccc1 | inactive: -12.1%
O=C1Nc2ccc(Cl)cc2C(c2ccccc2Cl)=NC1O (stereo unspecified) | inactive: -14.3%
C=C(C)[C@H]1CN[C@H](C(=O)O)[C@@H]1CC(=O)O | inactive: -16.1%
Clc1cncc(N2CCNCC2)n1 | inactive: -17.4% and inactive: -12.5%
CC(=O)OC1(c2ccccc2)CCN(CCc2ccccc2)CC1 | inactive: -20.8%
CCN(CC)CCc1c[nH]c2ccccc12 | inactive: -3.73%

SMILES | activation
CC(C)(C)c1o[nH]c(=O)c1C[C@H](N)C(=O)O | inactive: -11.8%
COC1CC(=C(c2cccs2)c2cccs2)C[N+](C)(C)C1 (stereo unspecified) | inactive: 2.79%
CN1CCN(C(=O)O[C@H]2c3nccnc3C(=O)N2c2ccc(Cl)cn2)CC1 | inactive: -3.07%
O=C(Cc1ccc(Cl)c(Cl)c1)N1CCCC[C@H]1CN1CCCC1 | inactive: -5.33%
Oc1ccc2[nH]cc(CCCCN3CC=C(c4ccccc4)CC3)c2c1 | inactive: -17.2%
NC(=O)c1cc([N+](=O)[O-])cc([N+](=O)[O-])c1 | inactive: -20.7%
COc1ccc2c(c1O)-c1c(OC)c(OC)cc3c1[C@H](C2)N(C)CC3 | inactive: -1.13%
O=CN1CCCCC1C1CC[C@H]2CCCCN2C1 (stereo partly specified) | inactive: -4.68%
c1ccc2sc(C3(N4CCCC4)CCCCC3)cc2c1 | inactive: -5.9%
O=C1CC[C@@]2(O)[C@H]3Cc4ccc(O)c5c4[C@@]2(CCN3CC2CC2)[C@H]1O5 | inactive: -10.5%
NC[C@H](CC(=O)O)c1ccc(Cl)cc1 | inactive: -12.7%
C=CCSSCC=C | inactive: -14.8%
O[C@@H]1[C@H](O)[C@H]2[C@@H](O)CCN2C[C@@H]1O | inactive: 11.8%
CC(C)NC(=O)N1CCC2(CCNCC2)CC1 | inactive: -16.9%
NCC(CC(=O)O)c1ccc(Cl)cc1 (stereo unspecified) | inactive: -7.68% and inactive: -5.83% and inactive: -5.85%
CC(C)CN1CC2(CCN(C(=O)c3ccncc3)CC2)C1 | inactive: -25.7%
CC(=O)O[C@H]1CC[C@H]2[C@@H]3CCC4=CC(=O)CCC4=C3C=C[C@]12C | inactive: -15.1%
O=c1cccc2n1CC1CNC[C@H]2C1 | inactive: -9.46% and inactive: -4.75%
CC(C)[C@]12O[C@H]1[C@@H]1O[C@]13[C@]1(O[C@H]1C[C@H]1C4=C(CC[C@@]13C)C(=O)OC4)[C@@H]2O | inactive: -2.41%
CCOC(=O)CC(SP(=S)(OC)OC)C(=O)OCC (stereo unspecified) | inactive: -7.43% and inactive: -16.9%
CN(C(=O)Cc1ccc(Cl)c(Cl)c1)C(CN1CCCC1)c1cccc(N=C=S)c1 (stereo unspecified) | inactive: 8.2%

SMILES | activation
CCCN(CCC)CCc1c[nH]c2ccccc12 | inactive: -14.9%
CN1CC[C@]23c4c5ccc(O)c4O[C@H]2[C@@H](O)C=C[C@H]3[C@H]1C5 | inactive: -0.173%
CN(CCCC(=O)c1cccnc1)N=O | inactive: -5.92%
CC(N)Cc1ccc(O)cc1 (stereo unspecified) | inactive: -8.41%
O=[N+]([O-])c1cc([N+](=O)[O-])c2ccccc2c1 | inactive: -18%
C[Se]C[C@H](N)C(=O)O | inactive: -62.4%
O=C1CN(O)C(c2ccccc2)=c2cc(Cl)ccc2=N1 | inactive: -3.12%
CC(NC(C)(C)C)C(=O)c1cccc(Cl)c1 (stereo unspecified) | inactive: -14.5% and inactive: -14.1% and inactive: 7.78%
O=C(O)CCCO | inactive: -7.29%
CN(C)CCCCCCN(C)C (tested in a mixture with another compound) | inactive: 3.09%
COc1ccc(OC)c(C[C@H](C)N)c1 | inactive: 2.91%
NCc1cccnc1 | inactive: -13.6%
CCCCC/C=C\C/C=C\C/C=C\C/C=C\CCCCCC(=O)NCCO | inactive: -11.2%
C[C@H](N)Cc1cccc(C(F)(F)F)c1 | inactive: -16.3%
[S]=[Sb](=[S])[S][Sb](=[S])=[S] | inactive: -13.9%
Cc1cc(C)cc(C(=O)OC2C[C@H]3CC[C@@H](C2)N3C)c1 (stereo partly specified) | inactive: -7.15% and inactive: -16.5%
CN(C)[C@@H]1C(=O)C(C(N)=O)=C(O)[C@@]2(O)C(=O)C3=C(O)c4c(O)cccc4[C@@](C)(O)[C@H]3C[C@@H]12 | inactive: -6.87%
CCCC[N+]12C3CC(C(CC)[C@H]1O)[C@@H]1C(O)C4(C[C@@H]12)c1ccccc1N(C)C34 (stereo partly specified) | inactive: -7.53%
